# Laboratory results taken from publication PMC4336329 (PLoS ONE, 2015).
# In all, about 310,000 compounds went through this assay and about 2,200 (0.71%) showed an effect of 50% or more. The effect is printed as a negative number. The list shows a part of the results.
# Target: human ether-à-go-go-related gene (hERG) potassium channel (human, UniProt Q12809)
# Test: primary screen, population patch clamp on CHO cells stably expressing hERG
# human ether-à-go-go-related gene (hERG) potassium channel, sequence (Q12809 whole entry, looked up): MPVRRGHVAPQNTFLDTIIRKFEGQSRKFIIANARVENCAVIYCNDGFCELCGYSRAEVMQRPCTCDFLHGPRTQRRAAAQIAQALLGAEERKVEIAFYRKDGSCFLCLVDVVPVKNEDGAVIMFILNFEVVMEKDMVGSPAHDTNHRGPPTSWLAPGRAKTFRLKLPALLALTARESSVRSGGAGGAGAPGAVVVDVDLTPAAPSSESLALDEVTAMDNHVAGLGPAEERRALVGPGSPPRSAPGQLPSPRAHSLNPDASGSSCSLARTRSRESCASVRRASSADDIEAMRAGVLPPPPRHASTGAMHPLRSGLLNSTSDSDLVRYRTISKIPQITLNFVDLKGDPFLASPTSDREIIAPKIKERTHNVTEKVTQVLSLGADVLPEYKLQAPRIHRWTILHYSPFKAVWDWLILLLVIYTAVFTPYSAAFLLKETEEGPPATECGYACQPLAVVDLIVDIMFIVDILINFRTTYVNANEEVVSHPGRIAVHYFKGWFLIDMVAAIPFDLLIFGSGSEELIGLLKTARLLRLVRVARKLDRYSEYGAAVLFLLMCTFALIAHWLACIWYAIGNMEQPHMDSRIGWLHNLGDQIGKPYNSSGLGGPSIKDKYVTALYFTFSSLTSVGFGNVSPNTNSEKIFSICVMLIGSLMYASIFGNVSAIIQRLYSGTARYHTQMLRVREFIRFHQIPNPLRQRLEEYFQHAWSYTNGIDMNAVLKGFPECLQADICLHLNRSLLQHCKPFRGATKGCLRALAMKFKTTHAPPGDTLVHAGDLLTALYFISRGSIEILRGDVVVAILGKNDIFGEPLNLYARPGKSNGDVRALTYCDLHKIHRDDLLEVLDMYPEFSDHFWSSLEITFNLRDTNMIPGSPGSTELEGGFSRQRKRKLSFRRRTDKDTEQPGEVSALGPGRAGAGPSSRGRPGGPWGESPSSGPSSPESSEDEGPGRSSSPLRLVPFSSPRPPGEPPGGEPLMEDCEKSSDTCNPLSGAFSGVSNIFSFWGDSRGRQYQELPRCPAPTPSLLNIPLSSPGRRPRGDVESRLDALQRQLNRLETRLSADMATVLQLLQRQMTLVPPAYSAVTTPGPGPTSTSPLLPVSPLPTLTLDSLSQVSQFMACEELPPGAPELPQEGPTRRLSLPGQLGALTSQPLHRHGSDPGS
row,SMILES,"hERG current change (%, negative = inhibition) at 1uM"
1,Cn1cc(/C=N/NC(=O)c2cc3cc(Br)ccc3o2)c2ccccc21,9.31%
2,CCCc1n[nH]c2c1C(=O)CC(C)(C)C2,10.9%
3,CC1CCCCN1CCNC(=O)CC1Oc2ccccc2NC1=O (stereo not drawn),5.21%
4,Cn1c(/C(C#N)=C(\O)COc2ccc3ccccc3c2)nc2ccccc21,12.8%
5,CC(=O)Oc1ccc2c(=O)oc(-c3ccccc3C)nc2c1,12.8%
6,CN(C)S(=O)(=O)c1ccc(N2CCCC2)c(C(=O)NCCc2ccc(F)cc2)c1,2.97%
7,O/N=C/c1ccc(OCc2ccccc2)c(Br)c1,18%
8,CC1=CC(C)(C)N2C(=O)C3(NCCc4c3[nH]c3ccccc43)c3cc(C)cc1c32 (stereo not drawn),20.4%
9,CCn1cc(C(=O)OCC(=O)c2cc(C)n(-c3ccc(OC(F)F)cc3)c2C)c(=O)c2ccc(C)nc21,-2.3%
10,CCC1CCc2sc(C(=O)N(C)CC(=O)Nc3cccc(OC)c3)cc2C1 (stereo not drawn),9.94%
11,COCc1[nH]nc2c1C(c1ccccc1Cl)C(C#N)=C(N)O2 (stereo not drawn),13.1%
12,C=CCN1C(=O)C2C3CC(=O)C(c4ccccc43)C2C1=O (stereo not drawn),20.4%
13,COc1ccc2oc(=O)c(C(=O)N3c4ccccc4CC3C)cc2c1 (stereo not drawn),0.806%
14,C=C(C)Cn1c(CNC(C)=O)nc2ccccc21,2.79%
15,O=C(O)COc1ccc(Oc2ccccc2)cc1,5.78%
16,Cc1cc2nc(SCCN3CCCC3)[nH]c2cc1C,2.01%
17,COc1ccc(CNC(=O)CN2C(=O)c3ccccc3C2=O)cc1,-0.406%
18,CC(=O)Nc1ccc(NC(=O)CSc2ccc(-c3ccco3)nn2)cc1,6.63%
19,O=C(Nc1ccccc1N1CCOCC1)c1cc(-c2ccco2)nc2ccccc12,2.65%
20,Cc1cccc(CSc2cccc3cccnc23)c1,5.34%
21,NNc1cc(C(=O)O)ccc1Cl,11%
22,Cn1cccc1CNC(=O)Nc1ccccc1,4.71%
23,COc1ccc(OC)c(S(=O)(=O)N2CCC(C(=O)NCC3CCCO3)CC2)c1 (stereo not drawn),8.54%

row,SMILES,"hERG current change (%, negative = inhibition) at 1uM"
1,CN(C)C1=NC[C@H](Cc2ccccc2)N1CC1CCCCC1,8.53%
2,CC(C)CN(C(=O)c1cccc(S(=O)(=O)N2CCCCC2)c1)C1CCS(=O)(=O)C1 (stereo not drawn),9.3%
3,O=c1[nH]c(N2CCN(Cc3ccc4c(c3)OCO4)CC2)nc2c1CCC2,9.05%
4,COc1cc(S(=O)(=O)N2CCOCC2)ccc1NC(=O)CSc1n[nH]c(=O)[nH]c1=O,7.05%
5,CCC(NS(=O)(=O)c1ccc(C)cc1)C(=O)Nc1ccc(NC(C)=O)cc1 (stereo not drawn),-1.54%
6,COc1ccc(C(=O)CSc2nnc(CN3CCCCC3)n2-c2ccc(F)cc2)cc1,-15.7%
7,COc1ccc(C(=O)N[C@H](C(=O)NCc2ccco2)C(C)C)cc1,10.2%
8,Cc1ccc(CC(=O)NC2CCN(C)CC2)cc1,15.7%
9,O=C(CSCc1ccccc1)N/N=C/c1ccccc1OCc1ccccc1,7.09%
10,OCCn1nc(-c2ccccc2)cc1-c1ccccc1,10.8%
11,Cc1cc(O)c(C(C)C)cc1NC1=NS(=O)(=O)c2ccccc21,4.53%
12,O=C(CCC(=O)N1CCOc2ccccc21)N1CCN(c2ccccc2)CC1,-14.3%
13,O=c1[nH]c(=S)n(-c2ccc(Cl)cc2)c(O)c1C=Nc1ccc(N2CCOCC2)cc1,11%
14,COc1cccc(C2=NO[C@@H]3C(=O)N(c4ccc5c(c4)OCCO5)C(=O)[C@H]23)c1OC,12.6%
15,CC(=O)c1ccc2c(c1)C1C(Cl)C(Sc3ccccc3[N+](=O)[O-])CC1C(c1ccccc1[N+](=O)[O-])N2 (stereo not drawn),11.1%
16,COC(=O)c1ccc(NC(=O)COC(=O)CCC2CCCC2)cc1,1%
17,CCOc1ccccc1Oc1c(C)oc2c(CN3CCN(C)CC3)c(O)ccc2c1=O,-2.34%
18,COc1cc(Sc2ccc(C)cc2)c(OC)cc1N.Cl,7.24%
19,O=C(C1=C[C@H](c2csc3ccccc23)C[C@H](OCc2ccc(CO)cc2)O1)N1CCN(Cc2ccccc2)CC1,9.99%
20,CC(=O)OCCN(CCOC(C)=O)c1c(C)[nH]c(=O)[nH]c1=O,13.3%
21,CCOc1ccc(C(=O)NCC(=O)N2CCN(c3ccccc3O)CC2)cc1,0.0889%
22,Cc1ccc(C)n1NC(=O)c1cccs1,8.58%
23,CC/C=C/CC(=O)N[C@@H](c1ccccc1)[C@@H](O)C(=O)O[C@H]1C[C@@]2(O)[C@@H](OC(=O)c3ccccc3)C3[C@](C)(C(=O)[C@H](OC(C)=O)C(=C1C)C2(C)C)[C@@H](O)C[C@H]1OC[C@@]31OC(C)=O (stereo partly drawn),11.3%

row,SMILES,"hERG current change (%, negative = inhibition) at 1uM"
1,[O-][n+]1c(/C=C/c2ccccc2)ccc2ccccc21,16.4%
2,CCc1ccc2oc(C(=O)NC3CCS(=O)(=O)C3)cc(=O)c2c1 (stereo not drawn),12.9%
3,COCCNC(=O)C1CCC(Cn2c(=S)[nH]c3ccccc3c2=O)CC1 (stereo not drawn),-6.53%
4,O=C(O)/C=C/C(=O)Nc1ccc(N2CCOCC2)nc1N1CCOCC1,8.86%
5,Cc1cccc(C)c1NCc1n[nH]c(=S)n1-c1ccccc1,18.5%
6,COCCCN(C(=S)NC(=O)c1ccc(C(C)(C)C)cc1)c1c(N)n(Cc2ccccc2)c(=O)[nH]c1=O,3.27%
7,Cc1cccn2c(=O)c3cc(C(=O)NC4CCS(=O)(=O)C4)n(Cc4ccccc4)c3nc12 (stereo not drawn),10%
8,O=C1c2ccc(Oc3ccc([N+](=O)[O-])cc3)cc2C(=O)N1CCO,4.16%
9,COc1ccc(C(=O)C2CCN(C(=O)Nc3ccc(C)cc3)CC2)cc1,5.45%
10,COc1ccc2nc(C)cc(Nc3ccc(C(=O)O)cc3)c2c1,21.5%
11,CC[N+](CC)(CC)CC(=O)Nc1ccc(SC(F)F)cc1.[Cl-],27.1%
12,Cc1ccc(/C=C2/C(=O)NC(=O)N(C)C2=O)cc1,7.48%
13,CCN(CC)Cc1cc(C(C)=O)ccc1O.Cl,5.64%
14,CCCCNC1CCS(=O)(=O)C1 (stereo not drawn),7.42%
15,O=C(CNC(=O)c1ccccc1)c1ccccc1,8.05%
16,Cc1ccc(C(=O)N(CCC2=CCCCC2)c2c(N)n(Cc3ccccc3)c(=O)[nH]c2=O)o1,5.54%
17,C/C(=N\NC(=O)c1ccc(O)cc1O)c1cccnc1,17.4%
18,S=C(N=Nc1ccccc1)NNc1ccccc1,14.9%
19,COc1cccc(CNC(=O)CCc2nnc3ccc(NCCCN4CCCC4=O)nn23)c1,23.7%
20,CC1CCC(NC(=O)C(Cc2ccccc2)n2cccc2)CC1 (stereo not drawn),2.79%
21,CNC(=S)N1CCN=C1Nc1nc(C)cc(C)n1,7.98%
22,Cc1ccc(C(=O)NC(=S)Nc2cccc(-c3nc4ccccc4s3)c2)cc1,14.8%
23,CC(=O)N1CCN(C(=O)CNC(=O)c2cccs2)CC1,0.464%

row,SMILES,"hERG current change (%, negative = inhibition) at 1uM"
1,CCOP(=O)(OCC)c1nc(-c2ccccc2)oc1NCc1ccccc1,9.55%
2,Cc1ccc(S(=O)(=O)N2CCC(C(=O)NCCN3CCOCC3)CC2)cc1C,8.96%
3,O=C(Nc1ccc(Nc2ccccc2)cc1)c1c(Cl)cccc1Cl,12.4%
4,Cc1ccccc1N1C(=O)C2C3CC(=O)C(c4ccccc43)C2C1=O (stereo not drawn),9.82%
5,Cc1cccc(C)c1NC(=O)COc1ccccc1C(=O)Nc1ccc(Br)cn1,16.3%
6,Cc1c(NC(=S)NC(=O)c2cccc([N+](=O)[O-])c2)c(=O)n(-c2ccccc2)n1C,2.84%
7,Cc1ccccc1C(=O)Oc1cccc(Nc2ncnc3ccccc23)c1,4.05%
8,COc1ccc(NC(=O)CNc2ccc(C#N)cc2)cc1,5.56%
9,O=C(Nc1nccs1)C(F)(F)C(F)(F)C(F)(F)C(=O)Nc1nccs1,5.46%
10,O=C(O)CCCCCCCCCC(=O)c1cccs1,17.1%
11,O=C(CCNC(=O)c1ccco1)Nc1ccc(OC(F)(F)F)cc1,12%
12,Cc1ccc(NC(=O)Nc2cccc(C)n2)c(C)c1,-1.56%
13,Cc1cc(C)nc(NS(=O)(=O)c2ccc(NC(=O)c3cccs3)cc2)n1,7.1%
14,Cn1c(=O)n(C)c2cc(NS(=O)(=O)c3ccccc3)ccc21,10.8%
15,C=C[C@@](C)(O)CC[C@@H]1[C@@]2(C)CCCC(C)(C)[C@@H]2CC[C@@]1(C)O,-4.15%
16,COc1ccc(S(=O)(=O)C(C#N)c2nc3ccccc3nc2N2CCCC(C)C2)cc1 (stereo not drawn),26.6%
17,CCN(CC)C(=O)CN1C(=O)COCC1=O,5.42%
18,C=CCSc1n[nH]c(=O)n1-c1cccc(C(F)(F)F)c1,11%
19,Nc1ccccc1C(=O)N1CCc2ccccc21,13.2%
20,O=C(Cn1nnc(-c2ccccc2)n1)c1ccccc1,5.04%
21,COc1ccc(NC(=O)CSc2nnc(C3CC3)n2C)cc1,9.99%
